{
  "source": "patent US20210070829A1",
  "about": "(ZHEJIANG DOER BIOLOGICS, published 2021)",
  "test_in_all_cases": "cell-based or functional assay",
  "key": {"[1]": {"biological_target": "T1, human GLP-1 receptor (human, UniProt P43220)"}, "[2]": {"biological_target": "Glucagon receptor"}, "[3]": {"biological_target": "T1, human GLP-1 receptor", "remark": "listed apart in the source"}, "[4]": {"biological_target": "Glucagon receptor", "remark": "listed apart in the source"}, "[5]": {"biological_target": "FGFR/β-Klotho receptor complex"}, "[6]": {"biological_target": "T1, human GLP-1 receptor", "remark": "listed apart in the source"}, "[7]": {"biological_target": "Glucagon receptor", "remark": "listed apart in the source"}},
  "note": "Read-outs that look alike come from different tables or passages of the source.",
  "data": [
    {"binder": "C240L13F8 (Fc fusion) HSQGTFTSDYSKYLDERAAQDFVQWLMNGGPSSGAPPPSGGGGSGGGGSGGGGSA[human IgG4 Fc with S228P N297A (EU numbers) omitted here]", "values": [
      {"measurement": "GLP-1R agonist activity EC50 (luciferase reporter)", "setting": "[1]", "result": 1.54, "unit": "nM"},
      {"measurement": "GLP-1R agonist activity ratio (after against before insertion of Cex; reference CG283L13F8)", "setting": "[1]", "result": 215, "unit": "fold"},
      {"measurement": "GCGR agonist activity EC50 (luciferase reporter)", "setting": "[2]", "result": 1.45, "unit": "nM"}
    ]},
    {"binder": "C382L13F8 (Fc fusion) HSQGTFTSDYSKYLDSQAAQDFVQWLMNGGPSSGAPPPSGGGGSGGGGSGGGGSA[human IgG4 Fc with S228P N297A (EU numbers) omitted here]", "values": [
      {"measurement": "GLP-1R agonist activity EC50 (luciferase reporter)", "setting": "[1]", "result": 1.75, "unit": "nM"},
      {"measurement": "GLP-1R agonist activity ratio (after against before insertion of Cex; reference CG214L13F8)", "setting": "[1]", "result": 206, "unit": "fold"},
      {"measurement": "GCGR agonist activity EC50 (luciferase reporter)", "setting": "[2]", "result": 1.33, "unit": "nM"}
    ]},
    {"binder": "C276L13F8 (Fc fusion) HSQGTFTSDYSKYLDSRAAQDFVQWLMNGGPSSGAPPPSGGGGSGGGGSGGGGSA[human IgG4 Fc with S228P N297A (EU numbers) omitted here]", "values": [
      {"measurement": "GLP-1R agonist activity EC50 (luciferase reporter)", "setting": "[1]", "result": 1.69, "unit": "nM"},
      {"measurement": "GLP-1R agonist activity ratio (after against before insertion of Cex; reference CG267L13F8)", "setting": "[1]", "result": 214, "unit": "fold"},
      {"measurement": "GCGR agonist activity EC50 (luciferase reporter)", "setting": "[2]", "result": 1.23, "unit": "nM"}
    ]},
    {"binder": "C368L13F8 (Fc fusion) HSQGTFTSDYSKYLDEQAAQDFVQWLMNTGPSSGAPPPSGGGGSGGGGSGGGGSA[human IgG4 Fc with S228P N297A (EU numbers) omitted here]", "values": [
      {"measurement": "GLP-1R agonist activity EC50 (luciferase reporter)", "setting": "[1]", "result": 1.68, "unit": "nM"},
      {"measurement": "GLP-1R agonist activity ratio (after against before insertion of Cex; reference C308L13F8)", "setting": "[1]", "result": 244, "unit": "fold"},
      {"measurement": "GCGR agonist activity EC50 (luciferase reporter)", "setting": "[2]", "result": 1.51, "unit": "nM"}
    ]},
    {"binder": "C225L13F8 (Fc fusion) HSQGTFTSDYSKYLDERAAQDFVQWLMNTGPSSGAPPPSGGGGSGGGGSGGGGSA[human IgG4 Fc with S228P N297A (EU numbers) omitted here]", "values": [
      {"measurement": "GLP-1R agonist activity EC50 (luciferase reporter)", "setting": "[1]", "result": 1.59, "unit": "nM"},
      {"measurement": "GLP-1R agonist activity ratio (after against before insertion of Cex; reference C224L13F8)", "setting": "[1]", "result": 211, "unit": "fold"},
      {"measurement": "GCGR agonist activity EC50 (luciferase reporter)", "setting": "[2]", "result": 1.36, "unit": "nM"}
    ]},
    {"binder": "C382L13F3L10M2 (Fc fusion) HSQGTFTSDYSKYLDSQAAQDFVQWLMNGGPSSGAPPPSGGGGSGGGGSGGGGSA[human IgG1 Fc with changes omitted here]GGGGAGGGGAGGGGAHPIPDSSPLLQFGGQVRQRYLYTDDAQQTEAHLEIREDGTVGGAADQSPESLLQLKALKPGVIQILGVKTSRFLCQRPDGALYGSLHFDPEACSFRERLLEDGYNVYQSEAHGLPLHCPGNKSPHRDPAPRGPCRFLPLPGLPPALPEPPGILAPQPPDVGSSDPLSMVGGSQGRSPSYES", "values": [
      {"measurement": "GLP-1R agonist activity EC50 (luciferase reporter)", "setting": "[3]", "result": 1.14, "unit": "nM"},
      {"measurement": "GCGR agonist activity EC50 (luciferase reporter)", "setting": "[4]", "result": 1.02, "unit": "nM"},
      {"measurement": "FGF21 activity EC50 (luciferase reporter)", "setting": "[5]", "result": 0.61, "unit": "nM"}
    ]},
    {"binder": "C382L13F9L10M2 (Fc fusion) HSQGTFTSDYSKYLDSQAAQDFVQWLMNGGPSSGAPPPSGGGGSGGGGSGGGGSA[human IgG4 Fc with S228P F234A L235A (EU numbers) omitted here]GGGGAGGGGAGGGGAHPIPDSSPLLQFGGQVRQRYLYTDDAQQTEAHLEIREDGTVGGAADQSPESLLQLKALKPGVIQILGVKTSRFLCQRPDGALYGSLHFDPEACSFRERLLEDGYNVYQSEAHGLPLHCPGNKSPHRDPAPRGPCRFLPLPGLPPALPEPPGILAPQPPDVGSSDPLSMVGGSQGRSPSYES", "values": [
      {"measurement": "GLP-1R agonist activity EC50 (luciferase reporter)", "setting": "[3]", "result": 1.23, "unit": "nM"},
      {"measurement": "GCGR agonist activity EC50 (luciferase reporter)", "setting": "[4]", "result": 1.13, "unit": "nM"},
      {"measurement": "FGF21 activity EC50 (luciferase reporter)", "setting": "[5]", "result": 0.83, "unit": "nM"}
    ]},
    {"binder": "C495L13F8 (Fc fusion) HSQGTFTSDYSKYLDEQAAQDFVQWLMNGGPSSGAPPPSGGGGSGGGGSGGGGSA[human IgG4 Fc with S228P N297A (EU numbers) omitted here]", "values": [
      {"measurement": "GLP-1R agonist activity EC50 (luciferase reporter)", "setting": "[1]", "result": 1.48, "unit": "nM"},
      {"measurement": "GLP-1R agonist activity ratio (after against before insertion of Cex; reference CG308L13F8)", "setting": "[1]", "result": 237, "unit": "fold"},
      {"measurement": "GCGR agonist activity EC50 (luciferase reporter)", "setting": "[2]", "result": 1.5, "unit": "nM"}
    ]},
    {"binder": "C364L13F8 (Fc fusion) HSQGTFTSDYSKYLDGQAAQDFVQWLMNGGPSSGAPPPSGGGGSGGGGSGGGGSA[human IgG4 Fc with S228P N297A (EU numbers) omitted here]", "values": [
      {"measurement": "GLP-1R agonist activity EC50 (luciferase reporter)", "setting": "[1]", "result": 1.81, "unit": "nM"},
      {"measurement": "GLP-1R agonist activity ratio (after against before insertion of Cex; reference C319L13F8)", "setting": "[1]", "result": 209, "unit": "fold"},
      {"measurement": "GCGR agonist activity EC50 (luciferase reporter)", "setting": "[2]", "result": 1.57, "unit": "nM"}
    ]},
    {"binder": "C232L13F8 (Fc fusion) HSQGTFTSDYSKYLDSQAAQDFVQWLMNTGPSSGAPPPSGGGGSGGGGSGGGGSA[human IgG4 Fc with S228P N297A (EU numbers) omitted here]", "values": [
      {"measurement": "GLP-1R agonist activity EC50 (luciferase reporter)", "setting": "[1]", "result": 1.94, "unit": "nM"},
      {"measurement": "GLP-1R agonist activity ratio (after against before insertion of Cex; reference C214L13F8)", "setting": "[1]", "result": 226, "unit": "fold"},
      {"measurement": "GCGR agonist activity EC50 (luciferase reporter)", "setting": "[2]", "result": 1.34, "unit": "nM"}
    ]},
    {"binder": "C392L13F8 (Fc fusion) HSQGTFTSDYSKYLDEEAAQDFVQWLMNTGPSSGAPPPSGGGGSGGGGSGGGGSA[human IgG4 Fc with S228P N297A (EU numbers) omitted here]", "values": [
      {"measurement": "GLP-1R agonist activity EC50 (luciferase reporter)", "setting": "[1]", "result": 1.74, "unit": "nM"},
      {"measurement": "GLP-1R agonist activity ratio (after against before insertion of Cex; reference C303L13F8)", "setting": "[1]", "result": 224, "unit": "fold"},
      {"measurement": "GCGR agonist activity EC50 (luciferase reporter)", "setting": "[2]", "result": 1.67, "unit": "nM"}
    ]},
    {"binder": "C462L13F8 (Fc fusion) HSQGTFTSDYSKYLDEEAAQDFVQWLMNGGPSSGAPPPSGGGGSGGGGSGGGGSA[human IgG4 Fc with S228P N297A (EU numbers) omitted here]", "values": [
      {"measurement": "GLP-1R agonist activity EC50 (luciferase reporter)", "setting": "[1]", "result": 2.11, "unit": "nM"},
      {"measurement": "GLP-1R agonist activity ratio (after against before insertion of Cex; reference CG303L13F8)", "setting": "[1]", "result": 214, "unit": "fold"},
      {"measurement": "GCGR agonist activity EC50 (luciferase reporter)", "setting": "[2]", "result": 1.38, "unit": "nM"}
    ]},
    {"binder": "C289L12F4 (Fc fusion) HSQGTFTSDYSKYLDGEAAQDFVQWLMNGGPSSGAPPPSGGGGAGGGGAGGGGAA[human IgG1 Fc with changes omitted here]", "values": [
      {"measurement": "GLP-1R agonist activity EC50 (luciferase reporter)", "setting": "[6]", "result": 2.54, "unit": "nM"},
      {"measurement": "GCGR agonist activity EC50 (luciferase reporter)", "setting": "[7]", "result": 2.01, "unit": "nM"}
    ]},
    {"binder": "C611L11F4 (Fc fusion) HSQGTFTSDYSKYLDERAAQDFVQWLLDGPSSGAPPPSGGSGGGGSGGGGSGGA[human IgG1 Fc with changes omitted here]", "values": [
      {"measurement": "GLP-1R agonist activity EC50 (luciferase reporter)", "setting": "[6]", "result": 1.32, "unit": "nM"},
      {"measurement": "GCGR agonist activity EC50 (luciferase reporter)", "setting": "[7]", "result": 1.19, "unit": "nM"}
    ]},
    {"binder": "C209L13F8 (Fc fusion) HSQGTFTSDYSKYLDSEAAQDFVQWLMNGGPSSGAPPPSGGGGSGGGGSGGGGSA[human IgG4 Fc with S228P N297A (EU numbers) omitted here]", "values": [
      {"measurement": "GLP-1R agonist activity EC50 (luciferase reporter)", "setting": "[6]", "result": 2.41, "unit": "nM"},
      {"measurement": "GCGR agonist activity EC50 (luciferase reporter)", "setting": "[7]", "result": 1.63, "unit": "nM"}
    ]}
  ]
}
